The RNAGym collection of RNA variant scans (doi:10.7554/elife.90254)
The source gives no read counts; variants with many changes may rest on few reads.

B1: LINE1-full (parent)
chain: UACGUAGGUGGUUUUCCCCUGAUAGUGCUAAGGGGGCCUGGAAGUUUGGACUGGGCAGAGCUCAACACAGCGUGGCAAAGUGGCUGUGGCUAGACUGCCUCUCUGGAUUCCUCGUCACUCAGCAGGGCAUCUCUGAGAGAAAUGCC

Variants of: B1
Test: self-cleavage, relative activity (ratio to wild type); higher = more cleavage; in vitro, sequencing; the parent is a self-cleaving ribozyme

Variant | self-cleavage
G36U U102A A136U | 1.53
U39C A64G U115C | 1.06
G36U A78G U104A U143G | 1.54
U39A A67G U143C | 0.58
G35U A59G U119A | 0.09
C37A A69G C103U U143A | 0.56
U39A U45C U132C | 1.24
U39A A50U A136G | 1.11
U39A U45C G97A | 0.06
U39C A77G A142G | 1.84
C37A U39C G86A U91C | 0.07
U39A A42G U96C | 0.35
G34U U47G A138G | 0.76
U39A G48A U132C | 1.58
U39A C71U C145U | 0.96
C37G U52C A107G U134A | 1.41
G36A U47A U85C U109C | 0.05
U39A A43G A107U | 1.23
C37A A77U A79G C90U A141G | 0.02
U39A U87A U132C A142G | 0.02
G35A A57G U130C A142G | 0.88
G34A G75A U102A A142G | 1.04
U39A A65G A79G A141G | 0.13
G36C U73A U109C U112C | 0.63

Variant | self-cleavage
G34A A59U U87C | 0.17
G35U A77G A94G | 0.41
G34U A43G U46C U91C | 0
U39A A59G U108C U132C | 0.12
U39A U112C C113U G114A C116A | 1.72
U39C A69U A77G | 0
U39A A43G U73C U130C | 0
C38U A57G A64U U87C C113U | 0.06
U39A U108C A117G | 1.7
G35A G106A U112C U119C U132C U143A | 1.44
U39A U100C A117G | 2.42
G35U G72A A129G A140G | 1.21
G36U A79G A129U | 1.37
G34A A42G U46A U47C A69G A124G | 0
G35U A92G U100A U130C A140G G144A | 1.15
G36A A77U U85C | 0.05
G33U A121U A124U | 0.89
G33U A42G A79G U91C A142G | 0
U39A A43G A69G U132C G144A | 0.07
G35A A42U U45A G75A | 0.6
C37U A42G U112C | 1.59
G34U G93A U104C | 0.01
G34A G88U U112C | 0.04
G33A U47C U62C | 0

Variant | self-cleavage
C37G U45G G58U | 0.09
G36A U46C U132C | 1.64
G36A U81C U130A U132C | 1.42
G34A A124C G139U | 1.21
G33A U85C U108A U112C | 0.08
U39A G55A G88A A136U | 0.01
G34A U85C G106A U112A | 0.11
C38U A42G U115C A117U | 1.08
U39A U62C G74A A121C | 0.02
G34U U47C A64G | 0
G34C G125A A136U | 1.78
G34C A59U U104C G139U | 0
G35A A43U U62C A65U A138G A142G | 0.04
U39A A94U A117U | 0.1
G34C A59G G74U A107C A129G | 0
G36A A50G C56U A59G U73G | 0
U39A A94G A140C | 0.29
G35C A64G A67U G70A U85C A140G | 0.04
G35A U47C G114A | 1.21
G33U G114A A138G | 1.32
G36A A57U A79G C133A A142G | 0.04
G35A U91C U100C A124G | 0.33
G34A C71U U102C A107G A124G | 0.18
U39A A79U A121U | 1.51

Variant | self-cleavage
G34U C38A A77G A138G | 1.7
G35A A50G U112A | 0.71
U39A A57U U134C | 0.11
G34A U119C A136U | 1.55
C37A A50G C90U G126C | 0.02
U39C A43G U109C | 0
G34A U39G G41U | 0.94
G33A A65U U96A A141G | 0.03
U39A A59G U62C A77G U87A | 0.23
G34A U39A A57U | 0.03
U39A U96A A107G A138G | 0
G36C A42U A59G G89A | 0.14
G35A U73A A78C | 0.32
G34A A50G A78G U112C | 0.29
G34A A92U A136U | 0.54
G33U C61U C68U A69G U91C A94G | 0.06
C38U A50G U132C | 0.99
G34A U73C A129U | 1.53
G33A U46C C66U A69G C103U U134C | 0.08
U39A A67G A136G | 0.28
U39A A78G U81C A138G | 1.35
G35A A64G A77U A117G A129G | 0.16
G36C A64U A79U | 0.56
U39A G75A U87A U109A | 0.17

Variant | self-cleavage
U39A A77G A141G | 2.54
G35U C66G C99U | 0.03
U39A A42U G44A U46C U87C A129G | 0.2
U39A A92U A138U A141G | 0.66
U39A A67G G139A | 0.56
G36A U39C A64G U96A | 0.06
G36A U102C G105A U143C | 1.28
C38U G72A G114A | 1.5
G36A U100C A107G U108A G144U | 1.72
G35U U115C U134C | 1.32
G36U U52G A121U | 1.67
G35A A65G A77U A121U | 0.04
G35A A64G U109A A121U U130A | 0.15
U39A A78G A79C U132C A141C | 1.53
U39A U73C G137A | 2
G36A A65G U132A | 0.02
G33A U45C A65U A136G | 0.32
U39A A59G A69G U96A U104C A129U | 0
U39A U45C C84U | 0.08
U39A A42G A43G G72A | 1.64
U39A A67U A140G | 0.04
C37U A94G A142U | 0.16
G34A A67G A78G | 0.19
C38U A69G U108C C116U | 0.6

Variant | self-cleavage
G35U A57U U85C U108C U115C | 0.2
C38U A57G U109A A140G | 0.49
G34C C95U U115C | 0.4
U39A U108C A140G | 0.37
U39A A43G G55A U130C | 0.04
G36A U39C A64G U119C U132C A141G | 0
U39A U46A U100C A138U | 2.05
C38A C71U C128U | 1
U39A A57G A94G | 0
C37U U112C A117G U119A A136G A142C | 0
G34U U85C A117G | 0
G33U U100C A129U | 1.99
U39C A43G U102C | 1.62
G35U U108A A129G U134C A140G | 1.46
C37U U130A U132C | 1.46
C38A G58U A64G | 0.04
G34A U115C U143C | 1.29
G35C C51A U119A | 1.27
U39C A43G U52A A57C U108C A142G | 0
U39C A77G A124U U143A | 2.85
C38U A59G U73C G80C | 0.09
G35A G60C A77U U100C | 0.03
G33C U45C A79G | 1.53
U39A A79U A142G | 1.76

Variant | self-cleavage
G34U A65G G72U U73C | 0.03
U39A U62C A78G | 0.1
G35A A67G A79G | 0.59
G33A A77U U104C U132A | 1.02
U39C A59G U96A | 0.07
G36A A64U U132A | 0
C37U U100C A138G | 2.59
C37G A42G U81A | 2.23
G34U U112C U115C A124U | 1.13
G33U U100C A124G | 1.76
U39C A43U A136U | 1.02
U39A G58U A78G A121U U143A | 0.01
C38A A57G C113U U143C | 0.77
G34A U62C G126U | 0.04
G36U A64U U115A U134A C146U | 0.4
G34A C120U A138G | 0.77
C38A A59G A67G | 0.14
U39A G88U U104C A140U | 0.04
G33U A57U A124U | 0.11
G36A A94G U102C | 0.32
G36U U46C U104C A129G | 1.39
G35A A42G A129U | 1.2
G36A C51U A65C G74U A78G G93A A141G | 0.02
